# The supplement of paper PMC8728848
# This is one part of the list.
# How the values were obtained:
# Experiment in all cases: glycan array binding signal (z-score within array); higher = stronger binding
# Settings in all cases: glycan notation: IUPAC condensed, linker removed
# Gal(a1-3)Gal(b1-3)GlcNAc = molecular target: Gal(a1-3)Gal(b1-3)GlcNAc
# Summary of the method: (§1)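 Columns mapping to the same glycan were averaged after glycan names were converted to IUPAC-condensed notation. The data come from 3228 arrays in the Consortium for Functional Glycomics database, limited to those with an available protein sequence. Binding is reported as a within-array Z-score averaged across arrays of one protein sequence and across linkers.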
# [1] = molecular target: Gal(a1-3)Gal(b1-3)GlcNAc(b1-2)Man
# Summary of the method: as §1
# [2] = molecular target: Gal(a1-3)Gal(b1-3)GlcNAc(b1-2)Man(a1-3)[Gal(a1-3)Gal(b1-3)GlcNAc(b1-2)Man(a1-6)]Man(b1-4)GlcNAc(b1-4)GlcNAc
# Summary of the method: as §1
# [3] = molecular target: Gal(a1-3)Gal(b1-3)GlcNAc(b1-3)GalNAc
# Summary of the method: as §1
# [4] = molecular target: Gal(a1-3)Gal(b1-3)GlcNAc(b1-6)GalNAc
# Summary of the method: as §1
# [5] = molecular target: Gal(a1-3)Gal(b1-3)[Fuc(a1-4)]GlcNAc(b1-2)Man(a1-3)[Gal(a1-3)Gal(b1-3)[Fuc(a1-4)]GlcNAc(b1-2)Man(a1-6)]Man(b1-4)GlcNAc(b1-4)GlcNAc
# Summary of the method: as §1
# Gal(a1-3)Gal(b1-4)Glc = molecular target: Gal(a1-3)Gal(b1-4)Glc
# Summary of the method: as §1
# Gal(a1-3)Gal(b1-4)GlcNAc = molecular target: Gal(a1-3)Gal(b1-4)GlcNAc
# Summary of the method: as §1
# [6] = molecular target: Gal(a1-3)Gal(b1-4)GlcNAc(b1-2)Man
# Summary of the method: as §1
# [7] = molecular target: Gal(a1-3)Gal(b1-4)GlcNAc(b1-2)Man(a1-3)[Gal(a1-3)Gal(b1-4)GlcNAc(b1-2)Man(a1-6)]Man(b1-4)GlcNAc(b1-4)GlcNAc
# Summary of the method: as §1
# [8] = molecular target: Gal(a1-3)Gal(b1-4)GlcNAc(b1-3)GalNAc
# Summary of the method: as §1
# [9] = molecular target: Gal(a1-3)Gal(b1-4)GlcNAc(b1-6)GalNAc
# Summary of the method: as §1
# [10] = molecular target: Gal(a1-3)Gal(b1-4)[Fuc(a1-3)]GlcNAc
# Summary of the method: as §1
# [11] = molecular target: Gal(a1-3)Gal(b1-4)[Fuc(a1-3)]GlcNAc(b1-2)Man(a1-3)[Gal(a1-3)Gal(b1-4)[Fuc(a1-3)]GlcNAc(b1-2)Man(a1-6)]Man(b1-4)GlcNAc(b1-4)GlcNAc
# Summary of the method: as §1
# Gal(a1-3)GalNAc = molecular target: Gal(a1-3)GalNAc
# Summary of the method: as §1
# [12] = molecular target: Gal(a1-3)[Gal(a1-4)]Gal(b1-4)GlcNAc
# Summary of the method: as §1
# [13] = molecular target: Gal(a1-4)Gal(b1-3)GlcNAc(b1-2)Man(a1-3)[Gal(a1-4)Gal(b1-3)GlcNAc(b1-2)Man(a1-6)]Man(b1-4)GlcNAc(b1-4)GlcNAc
# Summary of the method: as §1
# Gal(a1-4)Gal(b1-4)Glc = molecular target: Gal(a1-4)Gal(b1-4)Glc
# Summary of the method: as §1
# Gal(a1-4)Gal(b1-4)GlcNAc = molecular target: Gal(a1-4)Gal(b1-4)GlcNAc
# Summary of the method: as §1
# [14] = molecular target: Gal(a1-4)Gal(b1-4)GlcNAc(b1-2)Man(a1-3)[Gal(a1-4)Gal(b1-4)GlcNAc(b1-2)Man(a1-6)]Man(b1-4)GlcNAc(b1-4)GlcNAc
# Summary of the method: as §1
# [15] = molecular target: Gal(a1-4)Gal(b1-4)GlcNAc(b1-3)Gal(b1-4)Glc
# Summary of the method: as §1
# Gal(a1-4)GlcNAc = molecular target: Gal(a1-4)GlcNAc
# Summary of the method: as §1
# Gal(a1-6)Glc = molecular target: Gal(a1-6)Glc
# Summary of the method: as §1
# Gal(b1-2)Gal = molecular target: Gal(b1-2)Gal
# Summary of the method: as §1
# Gal(b1-3)Gal = molecular target: Gal(b1-3)Gal
# Summary of the method: as §1
# Gal(b1-3)Gal(b1-4)GlcNAc = molecular target: Gal(b1-3)Gal(b1-4)GlcNAc
# Summary of the method: as §1
# Gal(b1-3)GalNAc = molecular target: Gal(b1-3)GalNAc
# Summary of the method: as §1
# [16] = molecular target: Gal(b1-3)GalNAc(a1-3)[Fuc(a1-2)]Gal(b1-4)Glc
# Summary of the method: as §1
# [17] = molecular target: Gal(b1-3)GalNAc(a1-3)[Fuc(a1-2)]Gal(b1-4)GlcNAc
# Summary of the method: as §1
# Gal(b1-3)GalNAc(b1-3)Gal = molecular target: Gal(b1-3)GalNAc(b1-3)Gal
# Summary of the method: as §1
# [18] = molecular target: Gal(b1-3)GalNAc(b1-3)Gal(a1-4)Gal(b1-4)Glc
# Summary of the method: as §1
# [19] = molecular target: Gal(b1-3)GalNAc(b1-4)Gal(b1-4)Glc
# Summary of the method: as §1
# [20] = molecular target: Gal(b1-3)GalNAc(b1-4)[Neu5Ac(a2-3)]Gal(b1-4)Glc
# Summary of the method: as §1
# Gal(b1-3)GlcNAc = molecular target: Gal(b1-3)GlcNAc
# Summary of the method: as §1
# [21] = molecular target: Gal(b1-3)GlcNAc(a1-3)Gal(b1-4)GlcNAc
# Summary of the method: as §1
# [22] = molecular target: Gal(b1-3)GlcNAc(a1-6)Gal(b1-4)GlcNAc
# Summary of the method: as §1
# Gal(b1-3)GlcNAc(b1-2)Man = molecular target: Gal(b1-3)GlcNAc(b1-2)Man
# Summary of the method: as §1
# [23] = molecular target: Gal(b1-3)GlcNAc(b1-2)Man(a1-3)[Gal(b1-3)GlcNAc(b1-2)Man(a1-6)]Man(b1-4)GlcNAc(b1-4)GlcNAc
# Summary of the method: as §1
binder,measurement,setting,value
Cohesin-mDCIR (Macaca mulatta) (protein) GLDDLDAVRIKVDTVNAKPGDTVRIPVRFSGIPSKGIANCDFVYSYDPNVLEIIEIEPGDIIVDPNPDKSFDTAVYPDRKIIVFLFAEDSGTGAYAITKDGVFATIVAKVKEGAPNGLSVIKFVEVGGFANNDLVEQKTQFFDGGVNVGDTTEPATPTTPVTTPTTTDDLDAASFQKYSQLLEKMTTKDLVHTTLECVKKNMTTEETAWSCCPKNWKPFSSNCYFISTESASWQKSEKDCARMEAHLLVINTREEQDFIFQNLQEESAYFVGLSDPEGQRHWQWVDRTPYNESSTFWHPHEPSDPDERCVVLNFRKTPKRWGWNDVHCIVHQRSVCEMMKIHLHHHHHH,glycan array binding signal (z-score),Gal(a1-3)Gal(b1-3)GlcNAc,8.73
same,glycan array binding signal (z-score),[1],-0.43
same,glycan array binding signal (z-score),[2],-0.246
same,glycan array binding signal (z-score),[3],-0.309
same,glycan array binding signal (z-score),[4],2.28
same,glycan array binding signal (z-score),[5],-0.183
same,glycan array binding signal (z-score),Gal(a1-3)Gal(b1-4)Glc,-0.19
same,glycan array binding signal (z-score),Gal(a1-3)Gal(b1-4)GlcNAc,-0.271
same,glycan array binding signal (z-score),[6],-0.338
same,glycan array binding signal (z-score),[7],-0.053
same,glycan array binding signal (z-score),[8],-0.213
same,glycan array binding signal (z-score),[9],6.42
same,glycan array binding signal (z-score),[10],-0.064
same,glycan array binding signal (z-score),[11],0.637
same,glycan array binding signal (z-score),Gal(a1-3)GalNAc,-0.381
same,glycan array binding signal (z-score),[12],-0.415
same,glycan array binding signal (z-score),[13],-0.005
same,glycan array binding signal (z-score),Gal(a1-4)Gal(b1-4)Glc,-0.375
same,glycan array binding signal (z-score),Gal(a1-4)Gal(b1-4)GlcNAc,-0.244
same,glycan array binding signal (z-score),[14],-0.307
same,glycan array binding signal (z-score),[15],-0.348
same,glycan array binding signal (z-score),Gal(a1-4)GlcNAc,0.225
same,glycan array binding signal (z-score),Gal(a1-6)Glc,-0.11
same,glycan array binding signal (z-score),Gal(b1-2)Gal,2.33
same,glycan array binding signal (z-score),Gal(b1-3)Gal,0.098
same,glycan array binding signal (z-score),Gal(b1-3)Gal(b1-4)GlcNAc,-0.416
same,glycan array binding signal (z-score),Gal(b1-3)GalNAc,-0.192
same,glycan array binding signal (z-score),[16],-0.279
same,glycan array binding signal (z-score),[17],-0.227
same,glycan array binding signal (z-score),Gal(b1-3)GalNAc(b1-3)Gal,-0.403
same,glycan array binding signal (z-score),[18],-0.273
same,glycan array binding signal (z-score),[19],-0.429
same,glycan array binding signal (z-score),[20],-0.325
same,glycan array binding signal (z-score),Gal(b1-3)GlcNAc,-0.069
same,glycan array binding signal (z-score),[21],-0.372
same,glycan array binding signal (z-score),[22],-0.186
same,glycan array binding signal (z-score),Gal(b1-3)GlcNAc(b1-2)Man,0.185
same,glycan array binding signal (z-score),[23],-0.341
